The values below come from publication PMC2265268.

The chains behind the UniProt entries cited, without tags or fusion partners. Where a name states a change or a piece, a line headed by the entry shows the natural chain unless it says otherwise. Residues count along the entry.
UniProt Q15393: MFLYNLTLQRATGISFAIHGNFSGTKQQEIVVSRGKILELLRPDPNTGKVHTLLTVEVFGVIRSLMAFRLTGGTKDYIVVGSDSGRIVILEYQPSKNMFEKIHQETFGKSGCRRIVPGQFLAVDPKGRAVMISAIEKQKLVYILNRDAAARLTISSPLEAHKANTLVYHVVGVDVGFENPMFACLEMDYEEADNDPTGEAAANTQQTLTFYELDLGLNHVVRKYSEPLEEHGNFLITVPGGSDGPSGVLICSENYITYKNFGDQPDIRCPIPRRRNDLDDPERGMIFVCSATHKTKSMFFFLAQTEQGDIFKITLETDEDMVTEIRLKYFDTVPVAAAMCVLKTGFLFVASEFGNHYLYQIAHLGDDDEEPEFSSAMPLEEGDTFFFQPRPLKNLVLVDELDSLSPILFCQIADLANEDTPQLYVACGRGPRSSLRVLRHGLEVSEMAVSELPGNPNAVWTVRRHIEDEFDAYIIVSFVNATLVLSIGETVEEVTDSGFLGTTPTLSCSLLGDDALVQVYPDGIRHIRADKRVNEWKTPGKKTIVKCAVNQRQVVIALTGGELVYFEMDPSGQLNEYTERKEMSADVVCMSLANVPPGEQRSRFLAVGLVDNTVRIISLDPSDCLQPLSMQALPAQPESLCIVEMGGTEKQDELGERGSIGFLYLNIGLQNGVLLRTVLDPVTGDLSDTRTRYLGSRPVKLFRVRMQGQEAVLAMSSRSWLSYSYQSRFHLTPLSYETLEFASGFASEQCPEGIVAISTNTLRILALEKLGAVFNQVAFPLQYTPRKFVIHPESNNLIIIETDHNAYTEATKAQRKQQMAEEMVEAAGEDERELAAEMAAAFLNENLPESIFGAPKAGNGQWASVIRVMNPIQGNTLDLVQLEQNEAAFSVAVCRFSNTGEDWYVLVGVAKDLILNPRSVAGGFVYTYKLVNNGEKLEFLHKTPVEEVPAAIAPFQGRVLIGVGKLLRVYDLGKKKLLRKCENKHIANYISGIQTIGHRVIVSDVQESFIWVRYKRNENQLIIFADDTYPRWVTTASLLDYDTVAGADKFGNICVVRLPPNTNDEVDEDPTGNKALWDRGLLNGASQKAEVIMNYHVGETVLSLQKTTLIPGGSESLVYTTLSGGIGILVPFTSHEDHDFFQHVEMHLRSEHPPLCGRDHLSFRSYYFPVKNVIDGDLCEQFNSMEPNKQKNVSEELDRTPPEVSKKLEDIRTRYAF
UniProt Q13098: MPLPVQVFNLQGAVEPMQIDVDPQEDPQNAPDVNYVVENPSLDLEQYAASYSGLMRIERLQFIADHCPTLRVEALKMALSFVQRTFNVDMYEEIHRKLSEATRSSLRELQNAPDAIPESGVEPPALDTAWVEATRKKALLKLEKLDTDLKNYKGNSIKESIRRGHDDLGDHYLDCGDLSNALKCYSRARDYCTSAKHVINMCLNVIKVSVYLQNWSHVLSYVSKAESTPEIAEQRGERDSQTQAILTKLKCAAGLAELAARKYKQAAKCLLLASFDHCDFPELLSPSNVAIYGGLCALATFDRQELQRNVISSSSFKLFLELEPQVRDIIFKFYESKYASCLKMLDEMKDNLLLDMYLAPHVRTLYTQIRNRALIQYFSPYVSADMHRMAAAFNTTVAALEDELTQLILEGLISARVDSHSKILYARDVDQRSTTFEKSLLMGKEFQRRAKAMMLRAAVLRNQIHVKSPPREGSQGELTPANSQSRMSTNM
CSN1N (1–196 aa): residues 1-196 of Q13098
UniProt P61201: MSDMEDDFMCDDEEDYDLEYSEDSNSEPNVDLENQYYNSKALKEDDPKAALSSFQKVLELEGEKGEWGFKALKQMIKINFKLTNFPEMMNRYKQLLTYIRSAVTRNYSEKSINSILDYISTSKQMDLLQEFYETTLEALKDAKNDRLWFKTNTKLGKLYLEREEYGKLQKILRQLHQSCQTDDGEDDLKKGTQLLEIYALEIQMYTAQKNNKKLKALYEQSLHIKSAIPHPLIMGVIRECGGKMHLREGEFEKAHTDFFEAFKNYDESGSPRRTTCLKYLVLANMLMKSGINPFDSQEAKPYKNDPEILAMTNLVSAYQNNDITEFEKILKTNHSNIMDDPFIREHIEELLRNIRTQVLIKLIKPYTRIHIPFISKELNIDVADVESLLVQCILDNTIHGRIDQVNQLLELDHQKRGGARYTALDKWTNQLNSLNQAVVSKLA
UniProt Q92905: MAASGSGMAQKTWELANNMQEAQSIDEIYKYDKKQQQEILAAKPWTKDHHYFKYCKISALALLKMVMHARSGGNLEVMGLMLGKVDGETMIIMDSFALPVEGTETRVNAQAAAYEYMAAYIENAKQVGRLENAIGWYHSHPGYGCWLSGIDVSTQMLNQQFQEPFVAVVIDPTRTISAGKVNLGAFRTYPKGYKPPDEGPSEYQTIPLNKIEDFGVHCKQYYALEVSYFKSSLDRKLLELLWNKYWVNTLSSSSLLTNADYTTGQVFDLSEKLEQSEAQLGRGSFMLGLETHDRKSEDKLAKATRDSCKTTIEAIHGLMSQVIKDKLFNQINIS
UniProt P40337: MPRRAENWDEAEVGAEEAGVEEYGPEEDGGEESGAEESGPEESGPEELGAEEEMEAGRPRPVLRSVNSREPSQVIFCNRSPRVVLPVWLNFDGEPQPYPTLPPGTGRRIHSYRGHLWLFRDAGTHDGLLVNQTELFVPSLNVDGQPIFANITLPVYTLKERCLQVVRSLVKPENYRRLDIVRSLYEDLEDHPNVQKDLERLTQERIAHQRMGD
UniProt Q15843, residues 1-76: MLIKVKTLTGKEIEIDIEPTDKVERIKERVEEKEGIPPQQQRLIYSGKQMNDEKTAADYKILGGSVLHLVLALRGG
UniProt O75533: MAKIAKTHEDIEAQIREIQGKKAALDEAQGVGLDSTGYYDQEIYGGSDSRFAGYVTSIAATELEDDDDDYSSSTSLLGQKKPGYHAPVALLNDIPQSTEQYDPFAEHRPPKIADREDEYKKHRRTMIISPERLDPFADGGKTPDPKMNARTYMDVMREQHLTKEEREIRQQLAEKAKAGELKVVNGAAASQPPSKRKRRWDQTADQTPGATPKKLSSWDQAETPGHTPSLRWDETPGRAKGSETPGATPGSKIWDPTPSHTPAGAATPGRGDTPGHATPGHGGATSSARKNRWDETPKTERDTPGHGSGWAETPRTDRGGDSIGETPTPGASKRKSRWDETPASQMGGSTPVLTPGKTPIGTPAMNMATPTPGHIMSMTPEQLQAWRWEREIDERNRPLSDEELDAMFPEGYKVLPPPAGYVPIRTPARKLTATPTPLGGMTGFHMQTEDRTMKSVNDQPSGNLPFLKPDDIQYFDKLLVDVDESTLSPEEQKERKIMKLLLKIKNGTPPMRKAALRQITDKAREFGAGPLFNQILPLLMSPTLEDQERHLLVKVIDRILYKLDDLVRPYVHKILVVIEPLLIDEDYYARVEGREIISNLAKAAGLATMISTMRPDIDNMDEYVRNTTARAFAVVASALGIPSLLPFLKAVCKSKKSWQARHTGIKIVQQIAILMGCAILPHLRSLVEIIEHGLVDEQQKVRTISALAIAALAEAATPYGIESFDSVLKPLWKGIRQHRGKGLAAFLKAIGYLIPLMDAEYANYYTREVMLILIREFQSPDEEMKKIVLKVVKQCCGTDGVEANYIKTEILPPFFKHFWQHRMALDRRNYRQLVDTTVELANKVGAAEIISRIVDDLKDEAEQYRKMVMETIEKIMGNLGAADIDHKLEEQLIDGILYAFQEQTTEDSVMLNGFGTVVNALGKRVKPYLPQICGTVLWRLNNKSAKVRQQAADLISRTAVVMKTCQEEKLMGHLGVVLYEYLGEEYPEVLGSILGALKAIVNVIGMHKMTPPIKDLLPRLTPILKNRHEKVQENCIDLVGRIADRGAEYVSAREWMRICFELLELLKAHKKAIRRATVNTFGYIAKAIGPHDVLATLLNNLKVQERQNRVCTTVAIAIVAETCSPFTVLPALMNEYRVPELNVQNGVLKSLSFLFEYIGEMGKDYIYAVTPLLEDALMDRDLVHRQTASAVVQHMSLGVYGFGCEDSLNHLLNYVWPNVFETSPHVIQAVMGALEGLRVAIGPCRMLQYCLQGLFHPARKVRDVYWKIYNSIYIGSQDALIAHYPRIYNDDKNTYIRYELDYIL
UniProt Q92466: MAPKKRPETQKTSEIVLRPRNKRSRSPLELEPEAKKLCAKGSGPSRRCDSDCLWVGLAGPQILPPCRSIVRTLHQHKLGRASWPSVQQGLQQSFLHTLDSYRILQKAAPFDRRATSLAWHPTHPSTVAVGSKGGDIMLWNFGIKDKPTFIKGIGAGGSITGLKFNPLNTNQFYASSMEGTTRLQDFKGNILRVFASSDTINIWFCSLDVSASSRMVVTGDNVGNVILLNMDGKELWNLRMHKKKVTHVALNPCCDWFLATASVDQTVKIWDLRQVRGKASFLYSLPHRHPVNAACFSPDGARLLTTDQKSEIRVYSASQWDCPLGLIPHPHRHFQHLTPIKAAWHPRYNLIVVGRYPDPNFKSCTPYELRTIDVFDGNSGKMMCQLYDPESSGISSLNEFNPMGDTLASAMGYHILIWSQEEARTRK
UniProt Q16531: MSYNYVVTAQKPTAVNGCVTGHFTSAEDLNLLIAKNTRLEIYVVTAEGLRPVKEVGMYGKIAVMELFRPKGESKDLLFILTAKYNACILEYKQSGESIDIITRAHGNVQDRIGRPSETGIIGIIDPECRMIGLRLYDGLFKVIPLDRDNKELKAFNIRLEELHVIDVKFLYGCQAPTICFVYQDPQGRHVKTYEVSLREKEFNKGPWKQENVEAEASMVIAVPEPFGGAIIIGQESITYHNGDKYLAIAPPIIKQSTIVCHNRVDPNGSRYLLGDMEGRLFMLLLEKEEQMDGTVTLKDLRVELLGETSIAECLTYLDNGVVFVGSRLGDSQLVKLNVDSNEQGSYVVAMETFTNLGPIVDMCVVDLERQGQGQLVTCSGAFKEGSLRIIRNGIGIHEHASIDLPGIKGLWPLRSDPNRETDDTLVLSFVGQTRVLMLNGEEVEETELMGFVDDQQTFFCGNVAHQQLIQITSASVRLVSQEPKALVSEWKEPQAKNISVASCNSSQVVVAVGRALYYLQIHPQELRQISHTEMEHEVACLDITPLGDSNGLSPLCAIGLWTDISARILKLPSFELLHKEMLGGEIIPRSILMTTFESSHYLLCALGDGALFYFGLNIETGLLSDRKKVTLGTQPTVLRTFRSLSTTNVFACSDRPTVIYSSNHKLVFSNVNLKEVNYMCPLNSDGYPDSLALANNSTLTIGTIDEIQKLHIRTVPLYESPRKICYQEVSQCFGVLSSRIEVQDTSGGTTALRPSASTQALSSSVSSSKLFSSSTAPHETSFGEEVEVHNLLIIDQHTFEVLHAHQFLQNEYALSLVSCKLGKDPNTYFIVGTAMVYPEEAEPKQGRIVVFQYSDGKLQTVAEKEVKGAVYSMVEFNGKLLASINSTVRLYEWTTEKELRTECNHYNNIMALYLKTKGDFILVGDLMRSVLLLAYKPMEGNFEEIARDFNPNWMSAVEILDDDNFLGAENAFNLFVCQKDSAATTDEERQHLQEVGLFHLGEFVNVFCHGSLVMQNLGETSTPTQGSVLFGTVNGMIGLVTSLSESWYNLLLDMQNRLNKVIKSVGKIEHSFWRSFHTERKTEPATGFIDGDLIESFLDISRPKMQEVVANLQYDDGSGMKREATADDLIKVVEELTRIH
UniProt P63208: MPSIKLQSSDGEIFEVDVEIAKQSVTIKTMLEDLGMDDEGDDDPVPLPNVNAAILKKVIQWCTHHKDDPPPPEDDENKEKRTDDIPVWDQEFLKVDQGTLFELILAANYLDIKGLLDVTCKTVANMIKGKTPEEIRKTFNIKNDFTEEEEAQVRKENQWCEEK

These are yes or no findings as the source states them, for the method shown. In cells and extracts the contact can be indirect. Some binding calls cover weakened binding; strength is not graded here.

For test [1], the target named is HA-SAP130 (in vitro translated) (UniProt Q15393). Kind of test: co-IP; HA-SAP130 in vitro translated in rabbit reticulocyte lysate supplemented with GST or GST-Nedd8 (1 μg each); HA IP, anti-GST blot for the free proteins; only the binder purified.
Test [2] deals with Flag-SAP130 (UniProt Q15393). Kind of test: co-IP; HA-Cul1, HA-Cul2 and their truncations transfected into Flag-SAP130 stable cells; Flag IP, anti-HA blot.
The target in test [3] is HA-SAP130 (UniProt Q15393). Kind of test: co-IP; HEK293 cells transiently transfected with HA-SAP130 or empty vector; anti-HA IP, blots for endogenous proteins; 10 μM MG132 before collection.
Test [4] addresses HA-SAP130 (UniProt Q15393). Kind of test: co-IP; data not shown; transiently expressed DDB2 co-precipitated by SAP130.
In a further test the target is CSN1N (1–196 aa) (UniProt Q13098). In words: co-IP; HeLa cells co-transfected with SAP130-myc or HA-CPSF160 and Flag-tagged CSN subunits; Flag IP, blot with anti-myc or anti-HA.
Another test has as its target Flag-CSN1 (UniProt Q13098). Described as above.
The next test concerns the target Flag-CSN2 (UniProt P61201). The description is as above.
The next test concerns the target Flag-CSN5 (UniProt Q92905). The test is described as above.
Another test addresses HA-VHL (UniProt P40337). Kind of test: co-IP; HEK293 cells transfected with HA-VHL and Flag-SAP130; anti-HA and anti-Flag IP, blots with the indicated antibodies.
Test [5] addresses Flag-SAP130 (UniProt Q15393). Described as above.
In the next test the target is GST-CSN1 (UniProt Q13098). Kind of test: pull-down; S35-Met labeled HA-SAP130 in rabbit reticulocyte lysate incubated with recombinant GST or GST-CSN1 (1 μg each) for 30 min; GST pull-down, autoradiogram; only the target purified.

In the case of GST-Nedd8 (from UniProt Q15843 1-76), the binding result in [1] is on record as “no binding (tested: 1 μg)”.

Consider “HA-Cul1C450 (from UniProt Q13616 326-776) (domain or fragment)”, for which the binding result with Flag-SAP130 [2] is given as “binds”.

Regarding SAP155 (from UniProt O75533 1-1304), the binding entry with HA-SAP130 [3] is listed as “binds”.

As to “DDB2 (transiently expressed) (from UniProt Q92466 1-427)”, the binding result with HA-SAP130 [4] was “binds”.

With “HA-Cul1N428 (from UniProt Q13616 1-428) (domain or fragment)”, in the test with Flag-SAP130 [2], the binding result is listed as “binds weakly”.

Turning to SAP130-myc (from UniProt Q15393 1-1217), the binding entry is reported as “binds” with CSN1N (1–196 aa), “binds” with Flag-CSN1, “no binding” with Flag-CSN2 and “binds” with Flag-CSN5.

In the case of “Flag-SAP130 (from UniProt Q15393 1-1217)”, in the test with HA-VHL, the binding result is on record as “binds”.

For the substance “HA-Cul1C280 (from UniProt Q13616 496-776) (domain or fragment)”, the binding entry in the test with Flag-SAP130 [2] is recorded as “binds”.

As to DDB1 (from UniProt Q16531 1-1140), the binding entry with HA-SAP130 [3] is on record as “binds”.

On to HA-VHL (from UniProt P40337 1-213), for which the binding result with Flag-SAP130 [5] is “binds”.

Skp1 (from UniProt P63208 1-163): the binding result in the test with HA-SAP130 [3] is “binds”.

For the substance “HA-SAP130 (in vitro translated) (from UniProt Q15393 1-1217)”, in the test with GST-CSN1, the binding entry is recorded as “binds”.
